Out of some 310,000 compounds screened, about 2,200 (0.71%) showed an effect of 50% or more. Effects have a minus sign here. The list shows a part of the results.
biological target: human ether-à-go-go-related gene (hERG) potassium channel (human, UniProt Q12809); assay: primary screen, population patch clamp on CHO cells stably expressing hERG
Sequence (Q12809 whole entry, looked up): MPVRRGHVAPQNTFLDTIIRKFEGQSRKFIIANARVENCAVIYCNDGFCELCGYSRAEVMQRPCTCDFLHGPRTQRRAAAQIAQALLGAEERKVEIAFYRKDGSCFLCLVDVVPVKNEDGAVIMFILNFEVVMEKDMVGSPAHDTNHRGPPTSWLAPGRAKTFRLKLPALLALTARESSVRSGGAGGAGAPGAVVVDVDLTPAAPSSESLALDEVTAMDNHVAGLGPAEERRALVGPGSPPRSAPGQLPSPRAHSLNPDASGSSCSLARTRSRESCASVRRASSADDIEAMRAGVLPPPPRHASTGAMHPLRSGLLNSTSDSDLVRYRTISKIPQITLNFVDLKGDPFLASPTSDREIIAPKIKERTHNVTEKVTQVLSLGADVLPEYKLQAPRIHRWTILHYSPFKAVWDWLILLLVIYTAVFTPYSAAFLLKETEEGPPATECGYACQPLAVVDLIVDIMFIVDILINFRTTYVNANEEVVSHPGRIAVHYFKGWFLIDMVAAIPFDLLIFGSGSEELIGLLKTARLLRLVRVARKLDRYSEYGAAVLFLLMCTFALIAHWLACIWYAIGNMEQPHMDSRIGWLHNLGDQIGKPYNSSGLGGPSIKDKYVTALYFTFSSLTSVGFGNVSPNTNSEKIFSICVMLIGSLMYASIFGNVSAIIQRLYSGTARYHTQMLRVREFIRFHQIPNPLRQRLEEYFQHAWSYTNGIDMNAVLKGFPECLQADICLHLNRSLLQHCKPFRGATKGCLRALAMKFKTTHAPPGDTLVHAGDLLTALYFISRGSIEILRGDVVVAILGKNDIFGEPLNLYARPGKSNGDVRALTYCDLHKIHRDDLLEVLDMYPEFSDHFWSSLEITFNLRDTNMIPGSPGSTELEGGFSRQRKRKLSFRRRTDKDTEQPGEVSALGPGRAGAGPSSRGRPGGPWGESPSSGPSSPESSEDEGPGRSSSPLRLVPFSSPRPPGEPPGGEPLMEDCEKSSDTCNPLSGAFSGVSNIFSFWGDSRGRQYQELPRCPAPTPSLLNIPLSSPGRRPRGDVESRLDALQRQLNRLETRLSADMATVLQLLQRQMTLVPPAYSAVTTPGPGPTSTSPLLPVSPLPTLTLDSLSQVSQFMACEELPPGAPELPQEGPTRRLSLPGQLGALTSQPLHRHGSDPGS

Structure (SMILES)	hERG current change (%, negative = inhibition) at 1uM [%]
O=C(CCl)NC1(C(F)(F)F)C(=O)Nc2c1c(=O)[nH]c(=O)n2-c1ccccc1 (stereo not drawn)	12.9
COc1ccc(C(=O)OCCCOC(=O)c2ccc(OC)cc2OC)c(OC)c1	6.84
COc1cc(/C=C2/C(=O)NN(c3ccc(Cl)cc3)C2=O)cc(OC)c1O	8.83
CCc1nnc(NC(=O)CS(=O)(=O)Cc2ccccc2)s1	13.9
C/C(CC(=O)NC1CCCCC1)=N\NC(=O)c1ccccn1	17.8
COc1ccc(CCNC(=O)c2cc(-c3ccncc3)nc3ccc(S(=O)(=O)N4CCOCC4)cc23)cc1OC	2.32
NC(=O)C1CCCNC1 (stereo not drawn)	8.59
COc1ccc(NC(=O)CN(C)C(=O)c2n[nH]c3ccccc23)cc1	17.4
CCCCC(=O)Nc1cccc(NC(=S)NC(=O)COc2ccccc2Cl)c1	10.9
CC(C)C(NS(=O)(=O)c1ccc2c(c1)C(C)(C)C(=O)N2C)C(=O)NCc1ccc(F)cc1 (stereo not drawn)	-0.523
O=C(/C=C/c1ccccc1Cl)c1cccnc1	6.53
Cc1cccc(NC(=O)C(C)SCc2ccccc2)c1 (stereo not drawn)	8.11
COc1ccc(S(=O)(=O)N2CCN(C(=O)CCc3c[nH]c4ccccc34)CC2)cc1	1.3
COc1ccc(/C=C2\CCC(C3CCCC3)C2=O)cc1Cn1cccn1 (stereo not drawn)	7.58
CC(C)(C)C(=O)Oc1cccc(Nc2ncnc3ccccc23)c1	12.8
O=C1CC(c2ccccc2)CC(O)=C1C=NCCc1ccccc1 (stereo not drawn)	9.41
O=C(Nc1cccc2[nH]ncc12)NS(=O)(=O)c1ccccc1	16.5
O=C(CNC(=O)c1cccc(F)c1)N/N=C/c1ccc(O)c([N+](=O)[O-])c1	15.4
Brc1ccccc1OCCCn1cnc2ccccc21	2.78

Structure (SMILES)	hERG current change (%, negative = inhibition) at 1uM [%]
O=C(Cc1ccc(Cl)cc1Cl)OCC(=O)N1CCN(C(=O)c2ccco2)CC1	-18.5
CCOC(=O)c1c(-c2ccc(-c3ccccc3)cc2)csc1NC(=O)CCC(=O)O	11.7
COc1ccccc1-c1cc(C(=O)NCCCN2CCOCC2)no1	2.15
Cc1ccc(NC(=O)N2CCC(=O)N2)cc1	19.2
O=C(CSc1ccccc1)Nc1ccc2c(c1)OCO2	11.7
Cc1cc(=O)nc2c3ccccc3n(CC(=O)NC3CCCCC3)n12	15.2
Cc1ccc2c(c1)N(C(=O)c1ccco1)C(C)(C)c1ssc(=S)c1-2	1.58
COc1ccc(-c2noc(CCC(N)=O)n2)cc1OC	8.32
O=C(c1cccc(N2CCNC2=O)c1)N1CCCC(Nc2cccc(F)c2)C1 (stereo not drawn)	13.6
Cc1cc(CNC(=O)C(C)n2nc(C)c([N+](=O)[O-])c2C)c2ccccc2n1 (stereo not drawn)	10.7
Cc1cc(C(=O)CS(=O)(=O)c2ccc(F)cc2)cc(C)c1OC(=O)N(C)C	4.73
CC(NC(=O)COC(=O)CCc1ccccc1)c1ccccc1 (stereo not drawn)	11.2
COc1ccc(-c2cccc(NC(=O)COc3ccc(Cl)cc3)c2)nn1	10
CCc1nnc(NC(=O)c2cc(OC)c(OC)cc2[N+](=O)[O-])s1	10.5
CCC(=O)c1ccc(OCC(O)Cn2nc(C)c(Br)c2C)cc1 (stereo not drawn)	-100
Cl.Clc1ccccc1CSC1=NCCN1	6.35
CCOc1ccc(NS(=O)(=O)c2cnc(Cl)c(Cl)c2)cc1	-3.18
c1ccc(-n2ncc3c(NCc4ccco4)ncnc32)cc1	0.175
CC(=O)N1CC(C)Oc2ccc(S(=O)(=O)NC(CC(=O)O)c3cc(C)ccc3C)cc21 (stereo not drawn)	14.1

Structure (SMILES)	hERG current change (%, negative = inhibition) at 1uM [%]
Cc1onc(-c2c(F)cccc2Cl)c1C(=O)c1ccccc1	13.7
CCCCn1c(-c2ccoc2C)n[nH]c1=S	-0.37
Fc1ccccc1N1CCN(c2nc3ccccc3n3nnnc23)CC1	8.38
COc1ccc(C(=O)CSc2nnc(CNC(=O)c3ccco3)n2C)cc1OC	17.5
COC(=O)C(CO)Nc1ncnc2onc(-c3ccc(F)cc3)c12 (stereo not drawn)	14.4
O=c1c2ccccc2nc(-c2cccc(Cl)c2)n1O	9.71
O=C(COC(=O)c1ccc(F)c(S(=O)(=O)N2CCOCC2)c1)NC1CC1	2.24
O=c1c2ccccc2cnn1Cc1ccc(Br)cc1F	4.03
COc1cc(S(=O)(=O)N2CCOCC2)ccc1NC(=O)CSc1nnc(N)s1	-4.99
CCOC(=O)c1nnn(-c2nonc2-n2cccc2)c1CN1CCCCC1	-3.02
O=C(NCc1ccc2c(c1)OCO2)c1ccc(-c2ccc(Cl)cc2)o1	11.8
CCn1c(=O)c(CCC(=O)NCCN2CCOCC2)c(C)c2c(C)nn(-c3ccccc3)c21	-2.1
Cc1ccc(C(=O)Nc2ccc3cn[nH]c3c2)cc1S(=O)(=O)N1CCCCC1	6.99
COc1ccc(-n2c(SCC(=O)Nc3sc4c(c3C#N)CCCC4)nnc2-c2ccc(O)cc2)cc1	-3.18
Cc1cc(C(=O)N(C)CC(=O)Nc2ccc(Cl)c(C(F)(F)F)c2)no1	15.5
Cn1c(SCc2nc(-c3ccc(Br)cc3)no2)nnc1-c1ccco1	-20.2
Cc1ccc(NC(=S)NNC(=O)C2CC2c2ccc(C)cc2)cc1 (stereo not drawn)	-10.4
O=C(COC(=O)C(Cc1ccccc1)NC(=O)c1ccc(Cl)cc1)c1ccc(Cl)cc1 (stereo not drawn)	2.97
Cc1cc(C(=O)CSc2nnc3ccccn23)c(C)n1-c1ccccc1	-10.6

From publication PMC4336329 (PLoS ONE, 2015)
